From the supplement of paper PMC9446081 come the findings set out here.

Structures are written as SMILES. The whole screen tested about 39,000 compounds, of which about 220 (0.56%) showed activity. The list shows a part of the results.
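Also: static incubation at 37 °C against the wild-type strain, values averaged over two biological replicates.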

In this experiment the test system is Escherichia coli K-12 BW25113. The experiment can be described thus: relative growth (OD600 normalised to plate interquartile mean) (fraction); higher = less growth inhibition, active = 0.2 or less. To be noted: 50 µM; LB; incubation time: overnight (16-24 h).
In the case of `COc1ccc(NC(=O)Nc2cccc3c2O[C@H](CN(C)C(=O)Nc2ccc(C(F)(F)F)cc2)[C@H](C)CN([C@H](C)CO)C3=O)cc1`, the relative growth was inactive: 0.984.

In the case of `COc1ccc(NC(=O)N(C)C[C@@H]2OCCCC[C@H](C)Oc3ccc(NC(=O)Nc4ccc(C(F)(F)F)cc4)cc3C(=O)N([C@H](C)CO)C[C@@H]2C)cc1`, the relative growth was inactive: 1.01.

For `C[C@H](CO)N1C[C@H](C)[C@@H](CN(C)S(=O)(=O)c2ccccc2)OCCCC[C@H](C)Oc2ccc(NS(C)(=O)=O)cc2C1=O`, the relative growth is inactive: 1.02.

On to `C[C@@H]1CN([C@H](C)CO)C(=O)c2cccc(NS(=O)(=O)c3ccc(Cl)cc3)c2O[C@@H]1CN(C)Cc1ccc(C(=O)Nc2ccccc2N)cc1`, for which the relative growth is inactive: 0.984.

For the molecule `CN1CCN(C(=O)C[C@@H]2CC[C@@H]3[C@H](COC[C@@H](O)CN3C(=O)Nc3ccc4c(c3)OCO4)O2)CC1`, the relative growth was inactive: 0.99.

As to `C[C@@H]1CN([C@@H](C)CO)C(=O)c2cccc(NC(=O)Nc3ccc4c(c3)OCO4)c2O[C@H]1CN(C)Cc1ccc(Oc2ccccc2)cc1`, the relative growth was inactive: 1.01.

For `COCCOC(=O)N1C(=O)[C@@]2(c3cc(C#CCC(C(=O)OC)C(=O)OC)ccc31)[C@H](c1ccc(OCCO)cc1)N1[C@H](c3ccccc3)[C@H](c3ccccc3)OC(=O)[C@H]1[C@@H]2C(=O)N1CCc2cc(OC)c(OC)cc2C1`, the relative growth was inactive: 1.03.

`C[C@@H]1CCCCO[C@H](CN(C)Cc2ccncc2)[C@@H](C)CN([C@H](C)CO)C(=O)c2cc(NC(=O)NC3CCCCC3)ccc2O1`: the relative growth is inactive: 1.

For `COc1cccc(S(=O)(=O)Nc2ccc3c(c2)[C@H]2C[C@H](CC(=O)NCC(F)(F)F)O[C@H](CO)[C@H]2O3)c1`, the relative growth is inactive: 0.985.

Turning to `Cc1noc(C)c1S(=O)(=O)N(C)C[C@@H]1OCCCC[C@H](C)Oc2ccc(NS(=O)(=O)c3cn(C)cn3)cc2C(=O)N([C@H](C)CO)C[C@@H]1C`, the relative growth was inactive: 0.989.

Consider `C[C@@H]1CN([C@H](C)CO)C(=O)Cc2cc(NC(=O)Nc3ccc(C(F)(F)F)cc3)ccc2O[C@@H]1CN(C)Cc1ccc(-c2ccccc2)cc1`, for which the relative growth was inactive: 1.02.

Regarding `CN1C(=O)Cc2ccccc2C1=O`, the relative growth was inactive: 0.978.

Turning to `C[C@@H]1CN([C@H](C)CO)C(=O)Cc2cc(NS(=O)(=O)c3ccc(Cl)cc3)ccc2O[C@@H]1CN(C)Cc1ccc(Oc2ccccc2)cc1`, the relative growth was inactive: 0.998.

Take `CCC(C)(C)NC(=N)NC#N`: the relative growth is inactive: 0.988.

For `C[C@@H]1CN([C@H](C)CO)C(=O)c2cc(NC(=O)Nc3ccc(F)cc3)ccc2O[C@@H](C)CCCCO[C@@H]1CN(C)S(=O)(=O)c1cccs1`, the relative growth was inactive: 1.04.

For `CO[C@@H]1CN(C)C(=O)c2cc(NS(C)(=O)=O)ccc2OC[C@H](C)N(C(=O)CN(C)C)C[C@H]1C`, the relative growth is inactive: 0.981.

With `C/C=C/c1cnc2c(c1)C(=O)N([C@@H](C)CO)C[C@@H](C)[C@@H](CN(C)S(=O)(=O)c1ccc(OC)cc1)O2`, the relative growth is inactive: 0.968.

Consider `Cc1noc(C)c1S(=O)(=O)N(C)C[C@@H]1Oc2ccc(NS(=O)(=O)c3ccccc3)cc2CC(=O)N([C@@H](C)CO)C[C@@H]1C`, for which the relative growth is inactive: 0.991.

On to `Cn1cnc(S(=O)(=O)N[C@H]2C=C[C@H](CC(=O)N3CCN(c4ccccc4)CC3)O[C@@H]2CO)c1`, for which the relative growth is inactive: 0.984.

Take `C[C@H]1CN([C@@H](C)CO)C(=O)Cc2cc(NC(=O)CCN3CCOCC3)ccc2O[C@H]1CN(C)Cc1ccc(C(=O)O)cc1`: the relative growth is inactive: 1.01.

For the molecule `CC(C)NC(=O)Nc1ccc2c(c1)C(=O)N([C@@H](C)CO)C[C@@H](C)[C@@H](CN(C)C(=O)NC1CCCCC1)O2`, the relative growth is inactive: 1.03.

`CC(=O)O[C@@H]1[C@@H]2OC(=O)[C@H](OC(C)=O)[C@@H]2O[C@H]1n1ccc(=O)[nH]c1=O`: the relative growth was inactive: 1.02.

For `C[C@H](CO)N1C[C@H](C)[C@@H](CN(C)Cc2ccc(C(=O)Nc3ccccc3N)cc2)Oc2ccc(NS(=O)(=O)c3ccc(Cl)cc3)cc2C1=O`, the relative growth is inactive: 1.01.

Take `Cc1ccc(S(=O)(=O)Nc2ccc3c(c2)C(=O)N([C@H](C)CO)C[C@H](C)[C@H](CN(C)C(=O)CCC(F)(F)F)OCCCC[C@@H](C)O3)cc1`: the relative growth is inactive: 0.99.

As for `Nn1c(-c2ccncc2)nncc1=O`, the relative growth is inactive: 0.988.

As for `O=C(C[C@@H]1C[C@H]2c3cc(NS(=O)(=O)c4ccccc4)ccc3O[C@H]2[C@H](CO)O1)NCC(F)(F)F`, the relative growth was inactive: 1.

Turning to `C[C@H](CO)N1C[C@H](C)[C@H](CN(C)C(=O)Nc2cccc3ccccc23)Oc2ncc(C#CCC3CCCC3)cc2C1=O`, the relative growth was inactive: 1.01.

Consider `CN1C[C@H](O)COC[C@H]2O[C@@H](CC(=O)N3CCN(c4ccccc4)CC3)CC[C@@H]21`, for which the relative growth was inactive: 1.01.

With `Cc1ccc(S(=O)(=O)Nc2cccc3c2O[C@@H](CN(C)Cc2ccc(C(F)(F)F)cc2)[C@H](C)CN([C@@H](C)CO)C3=O)cc1`, the relative growth is inactive: 1.05.

On to `C[C@@H]1CN([C@H](C)CO)C(=O)c2cccc(NC(=O)Nc3ccc(F)cc3)c2O[C@@H]1CN(C)S(=O)(=O)c1cn(C)cn1`, for which the relative growth was inactive: 1.

Turning to `COc1ccc(S(=O)(=O)Nc2cccc3c2O[C@@H](CN(C)S(=O)(=O)c2c(C)noc2C)[C@H](C)CN([C@H](C)CO)C3=O)cc1`, the relative growth is inactive: 1.02.

As for `CN(C)CCCNC(=O)C[C@H]1CC[C@H]2[C@@H](COC[C@H](O)CN2S(=O)(=O)c2ccccc2)O1`, the relative growth is inactive: 1.01.

On to `O=c1c(O)c(-c2ccc(O)c(O)c2)oc2c(OC3OC(CO)C(O)C(O)C3O)c(O)cc(O)c12` (stereo not given), for which the relative growth was inactive: 0.894.

Consider `CO[C@H]1O[C@H](COS(=O)(=O)O)[C@@H](O[C@@H]2O[C@@H](C(=O)O)[C@@H](O[C@H]3O[C@H](COS(=O)(=O)O)[C@@H](O[C@@H]4O[C@H](C(=O)O)[C@@H](O[C@H]5O[C@H](COS(=O)(=O)O)[C@@H](O)[C@H](O)[C@H]5NS(=O)(=O)O)[C@H](O)[C@H]4O)[C@H](OS(=O)(=O)O)[C@H]3NS(=O)(=O)O)[C@H](O)[C@H]2OS(=O)(=O)O)[C@H](O)[C@H]1NS(=O)(=O)O`, for which the relative growth is inactive: 0.988.

Take `Cc1noc(C)c1NC(=O)Nc1ccc2c(c1)C(=O)N([C@H](C)CO)C[C@@H](C)[C@@H](CN(C)Cc1ccc(-c3ccccc3)cc1)O2`: the relative growth was inactive: 0.944.

Take `C[C@@H]1CCCCO[C@H](CN(C)C(=O)NC2CCCCC2)[C@H](C)CN([C@H](C)CO)C(=O)c2cc(NC(=O)Nc3cccc4ccccc34)ccc2O1`: the relative growth is inactive: 1.02.

On to `COCC(=O)Nc1ccc2c(c1)C(=O)N(C)[C@H]1CC[C@@H](CC(=O)NCc3ccccc3Cl)O[C@@H]1CO2`, for which the relative growth is inactive: 1.04.

For the molecule `C[C@H](CO)N1C[C@H](C)[C@H](CN(C)C(=O)c2cccnc2)Oc2ncc(-c3ccc(C(=O)N(C)C)cc3)cc2C1=O`, the relative growth was inactive: 1.01.

Consider `COc1ccc(CN(C)C[C@H]2OCCCC[C@H](C)Oc3ccc(NC(=O)NC(C)C)cc3C(=O)N([C@H](C)CO)C[C@H]2C)cc1`, for which the relative growth is inactive: 0.982.

Regarding `Cc1noc(C)c1S(=O)(=O)Nc1ccc2c(c1)C(=O)N([C@H](C)CO)C[C@H](C)[C@H](CN(C)C(=O)NC1CCCCC1)O2`, the relative growth is inactive: 0.99.

Consider `C[C@@H]1CN([C@@H](C)CO)C(=O)c2cccc(NC(=O)NC3CCCCC3)c2O[C@@H]1CN(C)S(=O)(=O)c1cn(C)cn1`, for which the relative growth is inactive: 1.02.

As for `O=C(C[C@H]1C[C@@H]2c3cc(NS(=O)(=O)c4ccc(F)cc4)ccc3O[C@@H]2[C@H](CO)O1)NCc1ccccc1`, the relative growth is inactive: 0.987.

As for `Cc1ccc(S(=O)(=O)N(C)C[C@@H]2OCCCC[C@@H](C)Oc3ccc(NC(=O)C4CCCCC4)cc3C(=O)N([C@H](C)CO)C[C@@H]2C)cc1`, the relative growth was inactive: 1.02.

Turning to `C[C@H](CO)N1C[C@H](C)[C@@H](CN(C)Cc2ccccc2F)Oc2cc(C#CCN(C)C)ccc2S1(=O)=O`, the relative growth is inactive: 1.03.

As for `C[C@@H]1CCCCO[C@H](CN(C)S(=O)(=O)c2ccccc2)[C@@H](C)CN([C@H](C)CO)C(=O)c2cc(NC(=O)CCC(F)(F)F)ccc2O1`, the relative growth is inactive: 0.999.

Regarding `C[C@H](NC(=O)N(C)C[C@H]1OCc2ccccc2-c2ccccc2C(=O)N([C@H](C)CO)C[C@@H]1C)c1ccccc1`, the relative growth was inactive: 1.

Take `COc1ccc(S(=O)(=O)Nc2ccc3c(c2)C(=O)N([C@@H](C)CO)C[C@@H](C)[C@@H](CN(C)C(=O)Nc2c(C)noc2C)OCCCC[C@@H](C)O3)cc1`: the relative growth was inactive: 0.997.

`O=C(N[C@@H](c1ccc2c(c1)OCO2)c1ccccn1)C1CCN(CCOc2ccc(Cl)cc2Cl)CC1`: the relative growth was inactive: 0.965.

On to `CC(C)CC#Cc1ccc2c(c1)O[C@@H](CN(C)C(=O)NC1CCCC1)[C@@H](C)CN([C@H](C)CO)S2(=O)=O`, for which the relative growth is inactive: 1.05.

As to `C[C@@H]1CCCCO[C@@H](CN(C)S(=O)(=O)c2ccc(F)cc2)[C@H](C)CN([C@@H](C)CO)C(=O)c2cc(NC(=O)c3ccccc3)ccc2O1`, the relative growth is inactive: 1.02.

As for `O=C(COP(=O)(O)O)[C@H](O)[C@@H](O)COP(=O)(O)O`, the relative growth is inactive: 1.

As to `C[C@@H]1CN([C@H](C)CO)C(=O)c2cc(C#CCN(C)C)cnc2O[C@@H]1CN(C)Cc1cccc(C(=O)O)c1`, the relative growth is inactive: 0.993.

Regarding `C[C@@H]1CN([C@@H](C)CO)C(=O)c2cccc(NC(=O)Nc3cccc4ccccc34)c2O[C@@H]1CN(C)S(=O)(=O)c1ccc(Cl)cc1`, the relative growth is inactive: 1.03.

Consider `CN(C)CC(=O)N[C@H]1CC[C@H](CCNS(=O)(=O)c2ccccc2)O[C@H]1CO`, for which the relative growth was inactive: 1.

As to `O=C(C[C@@H]1CC[C@@H]2[C@H](COC[C@@H](O)CN2S(=O)(=O)c2ccc(Cl)cc2)O1)NCCN1CCCCC1`, the relative growth was inactive: 1.02.
